# Source: PubChem BioAssay AID588855 (National Center for Advancing Translational Sciences (NCATS), 2011)
# About 5,000 (1.2%) of roughly 410,000 compounds were called active. The shares of active, inactive and inconclusive entries below differ from those in the screen. The call rests on the fitted dose curve; in most records, active means well fitted inhibition curve with a large enough effect; inconclusive means small, poorly fitted or top-dose-only effect; inactive means no such curve, though single readings can be large or run the other way. Where the call is inconclusive, the potency comes from a doubtful curve fit.
# Assay: qHTS for Inhibitors of TGF-b; further: nearly all actives have a fitted effect of over 65% in size
# Conditions: HepG2 CAGA-GFP TGF-b/SMAD3 reporter, GFP fluorescence, 18 h, TGF-beta stimulated, 500 pg/mL final; series mostly up to 46.1 µM; activity, negative = inhibition: at the top concentration
# Method in brief: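 First, reporter cells (HEPG2 CAGA-GFP) rested 2 h at 37 degrees C. Next, compounds were pinned in and TGF-beta added to 500 pg/mL final. After 18 h, GFP was imaged per cell and summed per well.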
# On the % scale 0 is the no-effect control and ±100 the full control effect; potency means the concentration at half of the fitted maximal effect; tags describe the fitted curve by direction and shape.
SMILES,Potency,"activity, negative = inhibition"
C[C@@H](C(=O)NCc1ccc(S(C)(=O)=O)cc1)[C@@H]1C[C@@]1(C)[C@@H](NC(=O)OCc1ccccc1)c1ccccc1,"inconclusive: 1.58 µM [inhibitor, partial curve, poor fit]",–
CCOc1ccc(NC(=O)Nc2nc3ccc(S(C)(=O)=O)cc3s2)cc1,"inconclusive: 6.31 µM [inhibitor, partial curve, poor fit]",–
CC(CCc1ccccc1)NC(=O)C1CCCN(c2nnc(-n3cccc3)s2)C1 (stereo not drawn),–,inactive: -22.1%
COc1ccc(NC(=O)c2ccc(Br)o2)cc1,"inconclusive: 7.08 µM [inhibitor, partial curve, poor fit]",–
Cc1c(Cl)cccc1NC(=O)c1cc(-c2ccccc2O)n[nH]1,"inconclusive: 35.5 µM [inhibitor, single point]",–
Cc1cc(Cl)ccc1-c1nc(NCc2ccccc2)nc2ccsc12,–,inactive: -16.3%
CCCN(CCC)S(=O)(=O)c1ccc(C(=O)N2CCn3c4c(c5cc(C)ccc53)CCCC42)cc1 (stereo not drawn),–,inactive: -0.094%
CCOC(=O)c1c(C)[nH]c(C(=O)OCC(=O)N(C)CC(=O)Nc2ccccc2Cl)c1C,–,inactive: -0.0078%
O=C(c1ccc(F)cc1F)N1CCCN(c2nc(-c3ccccc3)ns2)CC1,"inconclusive: 35.5 µM [inhibitor, single point]",–
Cc1cc2[nH]c3ccccc3c2c(C)n1,"inconclusive: 25.1 µM [inhibitor, single point]",–
Cc1c(N/N=C(\C#N)C(=O)c2ccc(Cl)cc2)c(=O)n(-c2ccccc2)n1C,"inconclusive: 10 µM [inhibitor, partial curve, poor fit]",–
CC(C)C[C@H]1CNC(=S)N1CC1CCN(CCCC2CCCCC2)CC1,"inconclusive: 35.5 µM [inhibitor, single point]",–
COc1ccc(O)c(/C=N/NC(=O)CSc2nnc(C)n2-c2ccccc2)c1,–,inactive: -31.4%
COc1cc(-c2cc(=O)c3c(O)c(OC)c(OC)cc3o2)cc(OC)c1O,–,inactive: 0.845%
Clc1cccc(OCCOCCN2CCNCC2)c1Cl,–,inactive: -14.7%
Cc1cccc(N2CCN(C(=O)c3ccc4c(c3)CCN4S(=O)(=O)c3ccccc3)CC2)c1C,"inconclusive: 1.26 µM [inhibitor, partial curve, poor fit]",–
Clc1cccc(CNc2ccn3nc(-c4ccccc4)cc3n2)c1,"inconclusive: 25.1 µM [inhibitor, single point]",–
CCOc1cccc(/C=N/NC(=S)Nc2cc(S(=O)(=O)N3CCOCC3)ccc2N2CCOCC2)c1O,"inconclusive: 11.2 µM [inhibitor, partial curve]",–
Cc1cccc(-c2ncc(CN3CCCC(CO)(Cc4cccc(Cl)c4)C3)cn2)c1 (stereo not drawn),"inconclusive: 35.5 µM [inhibitor, single point]",–
Cc1ccc(-c2nc(NC(=O)CSc3nnnn3-c3ccccc3)ns2)cc1,"inconclusive: 2.51 µM [inhibitor, partial curve, poor fit]",–
O=C1NC2(CCCCC2)C(=O)N1CC(=O)N1CCc2ccccc21,"inconclusive: 35.5 µM [inhibitor, single point]",–
O=S(=O)(c1ccc(OCC(O)CN2CCN(c3ccccc3Cl)CC2)cc1)N1CCOCC1 (stereo not drawn),"inconclusive: 20 µM [inhibitor, single point]",–
CC(=O)c1c(C)[nH]c(C(=O)CN2C(=O)NC3(CCCCC3C)C2=O)c1C (stereo not drawn),"inconclusive: 3.55 µM [inhibitor, partial curve, poor fit]",–

SMILES,Potency,"activity, negative = inhibition"
O=C(OCC(=O)N1CCc2ccccc21)[C@@H]1CC(O)CN1S(=O)(=O)c1ccc(Cl)cc1 (stereo partly drawn),"inconclusive: 14.1 µM [inhibitor, single point]",–
OC(c1cc(-c2ccc(C(F)(F)F)cc2)nc(C(F)(F)F)c1)C1CCCCN1 (stereo not drawn),active: 2.82 µM,–
CCOc1ccccc1NC(=O)NC(CC)c1c(-n2cccc2)sc2c1CCN(C)C2 (stereo not drawn),–,inactive: -19.1%
Cc1ccc(-n2nc3c(=O)n(CC(=O)NC4CCCCC4)nc(C)c3c2C)cc1,"inconclusive: 8.91 µM [inhibitor, partial curve, poor fit]",–
Cc1nn(-c2cccc(Cl)c2)c(Cl)c1/C=N/NC(=O)c1cccs1,–,inactive: 5.18%
Oc1c(Cl)cc(Cl)cc1/C=N/c1nc(-c2ccc(Cl)cc2)cs1,–,inactive: -12.7%
COc1cc2c(NC3CCN(C(C)C)CC3)nc(N3CCCN(C)CC3)nc2cc1OCCCN1CCCC1,"inconclusive: 3.98 µM [inhibitor, partial curve, poor fit]",–
COC(=O)C1=C(C)NC(=O)NC1c1ccc(-c2ccc(F)cc2)o1 (stereo not drawn),–,inactive: 8.29%
FC(F)Oc1ccc(NC(=S)N2CCN(Cc3ccccc3)CC2)cc1,"inconclusive: 35.5 µM [inhibitor, single point]",–
CCN=C1NN=C(c2ccc(C)cc2)CS1,–,inactive: -19.8%
Nc1nonc1-c1nc2ccccc2n1CC(=O)Nc1ccc(F)cc1,–,inactive: 1.95%
Cc1cccc(Cn2c(SCc3ccc(C(=O)NCc4ccccc4F)cc3)nc3cccnc32)c1,"inconclusive: 8.91 µM [inhibitor, partial curve, poor fit]",–
C#CCn1c(=NC(=O)CSC(C)=O)sc2cc(F)ccc21,"inconclusive: 7.94 µM [inhibitor, partial curve, poor fit]",–
Cc1ccc(-n2ccnc(NCc3cccs3)c2=O)cc1C,"inconclusive: 15.8 µM [inhibitor, partial curve, poor fit]",–
CCOC(=O)C1(CCCc2ccccc2)CCN(Cc2nccn2CC)CC1,"inconclusive: 7.08 µM [inhibitor, full curve, poor fit]",–
COc1cc(/C=C(\C#N)C(=O)NCC2CCCO2)ccc1OCC(N)=O (stereo not drawn),–,inactive: -3.15%
Cc1ccc(C(=O)Nc2ccccc2[N+](=O)[O-])cc1S(=O)(=O)N1CCOCC1,"inconclusive: 11.2 µM [inhibitor, partial curve, poor fit]",–
O=C(COCc1cc(-c2ccc3c(c2)OCO3)on1)N1CCN(c2cccc(C(F)(F)F)c2)CC1,"inconclusive: 35.5 µM [inhibitor, single point]",–
COc1cc2nc(NC(=O)c3ccc(S(=O)(=O)N4CCCC4)cc3)sc2cc1OC,"inconclusive: 2 µM [inhibitor, partial curve, poor fit]",–
COc1ccc(N(CC(=O)Nc2cc(C)ccc2OC)S(=O)(=O)c2c(C)noc2C)cc1,"inconclusive: 12.6 µM [inhibitor, single point]",–
CCC1CCc2sc(C(=O)NCC(c3ccccc3OC)N3CCCC3)cc2C1 (stereo not drawn),"inconclusive: 35.5 µM [inhibitor, single point]",–
CC(=O)Nc1ccc(C=C(C(C)=O)C(C)=O)cc1,–,inactive: -1.01%
Cc1ccc2oc(C(=O)Nc3ccc(S(=O)(=O)Nc4ncccn4)cc3)cc(=O)c2c1,–,inactive: -3.59%

SMILES,Potency,"activity, negative = inhibition"
C/C(=N\NC(=O)c1ccoc1C)c1ccccc1O,"inconclusive: 12.6 µM [inhibitor, single point]",–
CN(C)S(=O)(=O)N(CC(=O)NCCSc1ccc(Cl)cc1)c1ccccc1,"inconclusive: 11.2 µM [inhibitor, single point]",–
CCC(C(=O)Nc1cc(OC)ccc1OC)n1nc(-c2ccccc2)c2c(c1=O)CCCC2 (stereo not drawn),"inconclusive: 35.5 µM [inhibitor, single point]",–
c1ccc2c(c1)nc1n2CCN1CCNC1CCCCC1,–,inactive: -25.3%
C=CCn1c(C(CCC(C)C)CC(C)(C)O)n[nH]c1=S (stereo not drawn),"inconclusive: 4.47 µM [inhibitor, partial curve]",–
CCOC(=O)c1nc(C)nc(Sc2n[nH]c(-c3cc(C(F)(F)F)cc(C(F)(F)F)c3)n2)c1C,"inconclusive: 10 µM [inhibitor, partial curve, poor fit]",–
Cn1c2ccccc2c2c(C(=O)N3CCN(c4cccc(C(F)(F)F)c4)CC3)cn(C3CCCCC3)c(=O)c21,"inconclusive: 7.94 µM [inhibitor, partial curve, poor fit]",–
CCN1CNC(=S)N(c2cccc(C)c2)C1,–,inactive: -19.3%
CCN1CCCC1CN(Cc1cc2cc(C)cc(C)c2[nH]c1=O)C(=O)Nc1ccccc1OC (stereo not drawn),"inconclusive: 6.31 µM [inhibitor, single point]",–
CCCN1CCCc2cc(CN(CCCN3CCOCC3)C(=O)Nc3ccc(OCC)cc3)ccc21,inactive,–
Fc1ccc(Nc2nnc(C(F)(F)F)s2)cc1,–,inactive: 4.14%
Cc1cccc(Cn2nnc3c(=O)[nH]c(C4CCCN(C(=O)c5ccc(C(C)(C)C)cc5)C4)nc32)c1 (stereo not drawn),"inconclusive: 25.1 µM [inhibitor, single point]",–
COc1ccc(CCNC(=O)Cn2cnc3c(cnn3-c3ccccc3Cl)c2=O)cc1OC,"inconclusive: 22.4 µM [inhibitor, single point]",–
COc1ccc(-c2cc(C(=O)N3CCCCCC3)no2)cc1,–,inactive: 12.1%
COc1ccc(-c2cn[nH]c2-c2ccc(OCc3ccccc3F)cc2O)cc1OC,active: 15.8 µM,–
C/C(CC(=O)Nc1ccc(OCc2ccccc2)cc1)=N\NC(=O)C(=O)Nc1cccc(C)c1,"inconclusive: 35.5 µM [inhibitor, single point]",–
Cc1nnc(SCC(=O)Nc2cc(C(F)(F)F)ccc2N2CCOCC2)o1,–,inactive: -6.56%
Cc1ccc2nc(CSc3nnc(Nc4ccccc4F)s3)cc(=O)n2c1,"inconclusive: 35.5 µM [inhibitor, single point]",–
O=C(NCc1ccccc1Cl)C1CCC(CNc2nc(=S)[nH]c3ccccc23)CC1 (stereo not drawn),–,inactive: -3.51%
CCc1nnc(NC(=O)c2ccc(Cl)nc2)s1,–,inactive: 3.59%
S=c1[nH]nc(-c2ccccc2)n1/N=C/c1cccc(Cl)c1,–,inactive: -27.9%
COc1ccc2[nH]cc(C(=O)CN3CCCC(C)(C)C3)c2c1,–,inactive: 3.4%
